These results are taken from the RNAGym collection of RNA variant scans (doi:10.7554/elife.90254).

First the molecules themselves.
B1: LINE1-full (parent)
chain: UACGUAGGUGGUUUUCCCCUGAUAGUGCUAAGGGGGCCUGGAAGUUUGGACUGGGCAGAGCUCAACACAGCGUGGCAAAGUGGCUGUGGCUAGACUGCCUCUCUGGAUUCCUCGUCACUCAGCAGGGCAUCUCUGAGAGAAAUGCC

Read counts are not given, so values of variants with three or more changes are uncertain.

The series covers variants of B1. As to the kind of experiment: self-cleavage, relative activity (ratio to wild type); higher = more cleavage; in vitro, sequencing; the parent is a self-cleaving ribozyme.
Turning to UACGUAGGUGGUCUUCCCCUAAUAGAGCUAAGGGGGCCUGGAAGCCUGGACUGGGCAGAGCUCAACACAGCGUGGCAAGGUGGCUGUGGCUAGACUGCCUCUCUGGAUUCCUCGUCACUCAGCAGGGCAACUCUGAGAGAAGUGCC [U13C G21A U26A U45C U46C A79G U130A A142G], the self-cleavage stood at 0.

Take UACGUAGGUGGUCUUCCCCUGAUAGUGCUAAGGGGGUCUGGAAGUUUGGACUGGGCAGAGCUCAACGCAGCGUGGCAAAGUGGCUGUGGCUAGGCUGCCUCUCUGGAUUCCUCGUCACUCAGCAGGGCAUCUCAGAGAGAAAUGCC [U13C C37U A67G A94G U134A]: the self-cleavage worked out at 0.

As for UACGUAGGUGGUCUUCCCCUGAUAGUGCUAAGGGGGCCUGGAAGUUUGGACUGGGCAGAGCUCAACACAGCGUGGAAAAGCGGCUGUGGCUAGACUGCCUCUCUGGAUUCCUCGUCACUCAGCAGGGCAUCUCUGAGAGAAAUGCC [U13C C76A U81C], the self-cleavage was found to be 1.75.

With UACGUAGGUGGUCUUCCUCUGAUAGUGCUAAGGGGGCCUGGAAGUUUGGACUGGGCAGAGCUCAGCACAGCGUGGCAAAGUGGCUGUGGCUAGACUGCCUCUCUGGAUUCCUCGUCACUCAGCAGGGCAUCUCUGAGAGAAAUGCC [U13C C18U A65G], the self-cleavage was 0.3.

As for UACGUAGGUGGUCUUCCCCUGAUAGUGCUAAAGGGGCCUGGAGGUUUGGACUGGGCAGAGCCCAACACAGCGAGGCAAAGUGGCUGUGGCUAGACUGCCUCUCUGGGUUCCUCGUCACUCAACAGGGCAUCUCUGAGAGAGAUGCC [U13C G32A A43G U62C U73A A107G G122A A141G], the self-cleavage turned out to be 0.11.

As for UACGUAGGUGGUCUUCCCUUGAUAGUGCUAAGGGGGCCUGGAAGUUUGGACUGGGCAGAGCUCAACACAGCGUGGCAAAGUGGCUGUGGCUAGACUGCCUCUCUGGAUUCCUCAUCACUCAGCAGGGCAUCCCUGAGAGAAAUGCC [U13C C19U G114A U132C], the self-cleavage is 1.46.

As to UACGUAGGUGGUCUUCCCCUAAUAGUGCUAAGGGUGCCUGGAAGUUUGGACUGGGCAGAGCUCAACACAGCGUGGCAAAGUGGCUGUGGCUAGACUGCCUCUCUGGAUUCCUCGUCACUCGGCAGGGCGUCUCUGAGAGAAAUGCC [U13C G21A G35U A121G A129G], the self-cleavage is 0.71.

As for UACGUAGGUGGUCUUCCCUUGAUAGUGCUAAGGGGGCCUGGAAGUUUGGACUGGGCAGAGCUCAACACAGCGUGGCAAAGUGGCUGUGGCUAGACUGCCUCUCUGGAUUCCUCGUCACUCUGCAGGGCAUCUCUGGGAGAAAUGCC [U13C C19U A121U A136G], the self-cleavage is 0.69.

UACGUAGGUGGUCUUCCCUUGAUAGUGCUAAGGGGGCCUGGAAGUUUGGACUGGGCAGAGCCCAACACAGCGUGGCAAAGGGGCUGUGGCUAGACUGCCUCUCUGGAUUCCUCGUCACUCAGCAGGGCAUCUCUGAGAGAAAUGCC [U13C C19U U62C U81G]: the self-cleavage was 0.1.

On to UACGUAGGUGGUCUUCCCCUGAUAGUGCUAAGGGGGCCUGGAAGUUUGGACUGGGCAGAGCUCAACACAGCGUGGCAAAGUGGCUGUGGCUAGACUGCCUCUCUGGAUUCCUCGUCACUCAGCAGGGCAUCUCUGAGAGUAGUGCC [U13C A140U A142G], for which the self-cleavage is 1.87.

UACGUAGGUGGUCUUCCCCUGAUAGUGCUAAGGGGGCCUGGAAGUUUGGACUGGGCAGAGCUCAACAUAGCGUGGCAAAGUGGCUGUGGCUAGACUGCCUCUCUGGAUUCCUCGUCACUCAGCCGGGCAUCUCUGAGAGAAGUGCC [U13C C68U A124C A142G]: the self-cleavage is 0.27.

As for UACGUAGGUGGUCUUCCCCUAAUAGUGCAAAGGGGGCCUGGAAGUUUGGACUGGGCAGAGCUCAACACAGCGUGGCAAAGUGGCUGUGGCUAGACUGCCUCUCUGGAUUCCUCGUCACUCAGCAGGGCAUCUCUGAGAGAAAUGCC [U13C G21A U29A], the self-cleavage was 1.02.

On to UACGUAGGUGGUCUUCCCCUGAUAGUGCUAAGGGGGCCUGGAAGUUUGGACUGGGCAGAGCUCAACACAGCGUGGUAAAGUGGCUGUGGCUAGACUGCCUCUCUGGAUUCCUCGUCACUCAGCAGGGCAUCUCUGAGAGAAGUGCC [U13C C76U A142G], for which the self-cleavage was determined as 2.56.

Regarding UACGUAGGUGGUCUUCCCCUGAUAGUGAUAGGGGGGCCGGGAAGUUUGGACUGGGCAGAGCUCAACACAGCGUGGCAAAGUGGCUGUGGCUAGACUGCCUCUCUGGAUUCCUCGUCACUCAGCAGGGCAUCUCUGAGAGAAAUGCC [U13C C28A A31G U39G], the self-cleavage is 1.07.

UACGUAGGUGGUCUUCACCUAAUAGUGCUAAGGGGGCCUGGAAGUUUGGACUGGGCAGAGCUCAACGCAGCGUGGUAAAGUGGCUGUGGCUAGACUGCCUCUCUGGAUUCCUCGUCACUCAGCAGGGCGUCUCUGAGAGGAAUGCC [U13C C17A G21A A67G C76U A129G A140G]: the self-cleavage is 0.55.

UACGUAGGUGGUCUUCCCUUGAUAGUGCUAAGGAGGCCUGGAAGUUUGGACUGGGCAGAGCUCAACACGGCGUGGCUAAGUGGCUGUGGCUAGCCUGCCUCUCUGGACUCCUCGUCACUCAGCAGGGCAUCUCUGAGAGAAAUGCC [U13C C19U G34A A69G A77U A94C U108C]: the self-cleavage turned out to be 0.61.

For UACGUAGGUGGUCUUCCCCUGAUAGUGCUAAGAGGGCCUGGAAGUUUGGACUGGGCAGAGCUCAACACAGCGUGGCGAAGUGGCUGUGGCUAGACUGCCUCUCUGGAUUCCUCGUCACUCAGCAGGGCAUCUCUGAGUGAAAUGCC [U13C G33A A77G A138U], the self-cleavage turned out to be 1.09.

Regarding UACGUAGGUGGUCUUCCCCUGAUAGUGCUAAGGGGGCCUGGAAGUUUGGACUGGGCAGAGCUCAACACAGCGUGGCAAAGUGGCUGUGGCUAGACUGCCUCUCUGGAUUCCUAGUCACUCAGCAGGGCAUCUCUGGGAGAAAUGCC [U13C C113A A136G], the self-cleavage was found to be 0.93.

UACGUAGGUGGUCUUCCCCUGAUAGUGCUAAGGGGGCCUGGAAGUUUGGACUGGGCAGAGCUCAACACAGCGUGGCAAAGUGGCUGUGGCUAGACUGACUCUCUGGAUUCCUCGCCACUCAGCAGGGCAUCUCUGAGAGAAAUGCC [U13C C98A U115C]: the self-cleavage was 0.36.
